PubChem BioAssay (NCI)
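Tested at 5 concentrations; 48 h exposure; 96-well plates; endpoints linearly interpolated, else capped at highest concentration. GI50 marks 50% less growth. TGI: concentration producing complete growth inhibition.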

Tested on: NCI-H322M lung
Experiment: NCI anticancer screen, dose series, 48 h

CCC1=Cc2cc(OC)ccc2OC12C=Cc1cc(OC)ccc1O2 (configuration not stated)
GI50: 740 nM
TGI: > 100000 nM
